Publication PMC4336329 (PLoS ONE, 2015)
Out of some 310,000 compounds screened, about 14,000 (4.5%) showed an effect of 50% or more. Effects have a minus sign here. Some of the results follow.

Biological target: human ether-à-go-go-related gene (hERG) potassium channel (human, UniProt Q12809)
Assay: primary screen, population patch clamp on CHO cells stably expressing hERG
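Also: peak tail current of the secondary pulse compared with the same well before compound.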

human ether-à-go-go-related gene (hERG) potassium channel, sequence (Q12809 whole entry, looked up): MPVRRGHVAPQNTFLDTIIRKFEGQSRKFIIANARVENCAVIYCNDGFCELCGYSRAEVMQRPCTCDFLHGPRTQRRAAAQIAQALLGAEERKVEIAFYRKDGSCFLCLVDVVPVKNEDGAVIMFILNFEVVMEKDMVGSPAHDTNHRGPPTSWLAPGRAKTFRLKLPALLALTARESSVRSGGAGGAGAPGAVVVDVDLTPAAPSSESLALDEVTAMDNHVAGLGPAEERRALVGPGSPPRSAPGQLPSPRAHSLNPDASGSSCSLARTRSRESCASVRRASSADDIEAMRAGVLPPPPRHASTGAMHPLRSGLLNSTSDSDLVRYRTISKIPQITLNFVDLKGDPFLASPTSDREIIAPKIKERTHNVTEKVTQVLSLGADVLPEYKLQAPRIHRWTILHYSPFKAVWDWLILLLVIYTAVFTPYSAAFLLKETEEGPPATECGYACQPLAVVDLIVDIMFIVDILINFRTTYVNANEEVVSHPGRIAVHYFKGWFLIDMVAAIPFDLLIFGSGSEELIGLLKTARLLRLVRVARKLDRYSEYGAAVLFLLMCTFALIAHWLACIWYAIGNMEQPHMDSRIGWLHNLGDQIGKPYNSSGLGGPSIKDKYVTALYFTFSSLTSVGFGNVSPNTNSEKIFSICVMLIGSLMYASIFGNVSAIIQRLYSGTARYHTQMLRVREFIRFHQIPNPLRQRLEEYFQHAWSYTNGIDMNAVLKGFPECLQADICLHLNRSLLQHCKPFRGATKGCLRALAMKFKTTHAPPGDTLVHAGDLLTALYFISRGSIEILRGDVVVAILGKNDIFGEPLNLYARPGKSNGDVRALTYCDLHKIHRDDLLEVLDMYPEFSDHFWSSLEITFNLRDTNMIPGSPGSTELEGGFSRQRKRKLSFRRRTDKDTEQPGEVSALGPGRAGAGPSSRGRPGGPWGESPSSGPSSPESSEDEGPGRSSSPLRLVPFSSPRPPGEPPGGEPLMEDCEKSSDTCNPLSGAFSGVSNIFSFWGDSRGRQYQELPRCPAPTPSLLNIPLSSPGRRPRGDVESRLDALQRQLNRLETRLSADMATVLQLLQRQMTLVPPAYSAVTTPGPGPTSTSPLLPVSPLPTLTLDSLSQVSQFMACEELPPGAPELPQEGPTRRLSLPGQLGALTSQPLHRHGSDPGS

In order of rising “hERG current change (%, negative = inhibition) at 10uM” value:
1. O=C(C(NS(=O)(=O)c1cccc2nsnc12)c1ccccc1)N1CCN(c2ccccn2)CC1 (centres unmarked)  -64.8%
2. Cc1cc(N2CCN(Cc3nc(-c4ccc(F)cc4)oc3C)CC2)cc(C)n1  -53.8%
3. CCCN(CC(=O)Nc1ccccc1OC)C(=O)c1ccc(S(=O)(=O)Nc2ccccc2)cc1  -53.4%
4. CS(=O)(=O)c1ccc(S(=O)(=O)N2CCC(CO)(CCCc3ccccc3)CC2)cc1  -41.4%
5. CC1CN(S(=O)(=O)c2cccc(C(=O)Nc3cc(Cl)ccc3N3CCOCC3)c2)CC(C)O1 (centres unmarked)  -39.7%
6. O=C(Nc1nc(SCc2ccc(F)cc2)ns1)c1ccco1  -39.6%
7. CCOC(=O)C1CCN(S(=O)(=O)c2ccc(Cl)cc2OC)CC1  -39.4%
8. CC(C)COc1ccc(C(=O)OCCN2CCCCC2)cc1.Cl  -35.6%
9. COc1ccc(C(CNC(=O)CNC(=O)c2cccc(Cl)c2)N2CCCC2)cc1 (centres unmarked)  -33.8%
10. Cc1ccc(-c2cc(C(F)F)n3ncc(C(=O)N4CCN5CCCC5C4)c3n2)cc1 (centres unmarked)  -33%
11. COc1cc(Nc2nc3ccccc3nc2NS(=O)(=O)c2ccc([N+](=O)[O-])cc2)cc(OC)c1OC  -30.4%
12. CN1CCC(=C2c3ccccc3CCc3sccc32)CC1.O=C(O)/C=C\C(=O)O  -29.4%
13. CCOC(=O)N1CCN(Cc2cc(=O)oc3ccc(Cl)cc23)CC1  -26.9%
14. CCOc1ccccc1NC(=O)c1ccccc1-c1ccccc1  -20.7%
15. COc1cc2nc(C)sc2cc1SC  -19.6%
16. COc1ccc(C2(c3ccc(OC)cc3)NC(=O)N(CC(=O)Nc3ccc(OC(F)F)cc3)C2=O)cc1  -19.2%
17. NS(=O)(=O)c1ccc(NC(=O)CN2CCCN(S(=O)(=O)c3ccc(F)cc3)CC2)cc1  -17.9%
18. COc1ccc(N(CC(=O)Nc2cccnc2)S(=O)(=O)c2ccc(C)cc2)cc1Cl  -16.9%
19. CS(=O)(=O)N(CC(=O)NCCSCc1c(F)cccc1Cl)c1cccc([N+](=O)[O-])c1  -15.9%
20. O=C(Cc1ccsc1)NCC(c1ccco1)N1CCCCC1 (centres unmarked)  -15.5%
21. CN(c1ccccc1)S(=O)(=O)c1cccc(C(=O)NCCc2c[nH]c3ccccc23)c1  -15%
22. CC(/C=N/NC(=O)c1cccnc1)=C\c1ccccc1  -14.8%
23. O=C(c1ccco1)N1CCN(c2cc(=O)n(C3CCCCC3)c(=O)[nH]2)CC1  -14%
24. Cc1ccc(C(C)NC(=O)C2CCCC2)cc1C (centres unmarked)  -9.17%
25. Cc1cc(N/N=C2\CC(C)CC(C)(C)C2)nc2ccccc12 (centres unmarked)  -7.04%
26. O=C(C1CCN(S(=O)(=O)c2cccc3nsnc23)CC1)N1CCN(c2ccccc2F)CC1  -6.85%
27. CCOc1ccc(C2=C(C=C(C#N)C#N)C(c3ccccc3)c3ccccc3O2)cc1 (centres unmarked)  -5.72%
28. COC(=O)c1cccnc1-n1c(=O)c2cccnc2n(Cc2cccc(OC)c2)c1=O  -5.19%
29. O=C(COC(=O)CC1CC2CCC1C2)NC(=O)NCc1ccco1 (centres unmarked)  -4.89%
30. O=C(NCc1ccco1)c1cc2n(n1)C(C(F)(F)F)CC(c1ccc(F)cc1)N2 (centres unmarked)  -4.65%
31. COc1ccc(Cl)cc1NC(=O)C(=O)N/N=C/c1cc(C)n(-c2ccc(C)cc2)c1C  -4.41%
32. CCO[C@H]1OC(C(=O)N2CCOCC2)=C[C@@H](c2cn(C(C)=O)c3ccccc23)[C@@H]1CCCO  -4.1%
33. CCCNC(=O)N1[C@H]2CC[C@@H]1C(C(=O)OC)=C(c1ccc3ccccc3c1)C2  -3.59%
34. COc1ccc(C2(c3ccc(OC)cc3)NC(=O)N(CC(=O)NC(C)C)C2=O)cc1  -2.58%
35. COc1ccc(-c2nc3ccccc3n2OC(=O)N(C)C)cc1  -2.4%
36. N#Cc1ccsc1NC(=O)COC(=O)c1ccc2ccccc2c1  -2.17%
37. Cc1nn(CC#N)c(=O)n1N(C)c1ncc(C(F)(F)F)cc1Cl  -1.82%
38. CCOC(=O)c1cnc(SCC(=O)Nc2ccc(N3CCOCC3)cc2)nc1N  -0.979%
39. O=C1S/C(=C\c2ccc(Cl)cc2)C(=O)N1CCn1cnnn1  -0.978%
40. CNC(=O)COC(=O)c1cccc(S(=O)(=O)N2CCN(c3ccc(F)cc3)CC2)c1  -0.232%
41. CCCN1C(=O)c2ccccc2NC1c1ccc(OC)cc1OC (centres unmarked)  1.63%
42. COc1ccc(C)cc1-n1nnnc1SCn1nnc2ccccc2c1=O  1.94%
43. Cc1ccc(N2C(=O)CC(Cc3ccc(Cl)cc3)C2=O)cc1 (centres unmarked)  2.42%
44. COc1ccc(C2=NN(C(=O)CSc3ncccn3)C(c3ccc(C)cc3)C2)cc1 (centres unmarked)  2.72%
45. O=C(CN1CCN(c2ncccn2)CC1)N1CCc2ccccc21  2.82%
46. CCOC(=O)C(C)Oc1c(Br)cc(C2NC(=O)NC(C)=C2C(C)=O)cc1OCC (centres unmarked)  3.1%
47. O=C(COc1ccccc1C(=O)NCc1ccncc1)Nc1ccc(Br)cc1  3.71%
48. O=C(Nc1n[nH]c(C(F)(F)F)n1)c1cccs1  4.63%
49. CCN1C(=O)N[C@@H](c2cccc(F)c2)C(C(C)=O)=C1C  5.39%
50. CC(C)(C)c1ccc(C(=O)NCCC(=O)NC2=NCCS2)cc1  5.69%
51. CCCC(=O)Nc1nnc(CC(=O)OCC)s1  5.78%
52. Cc1ccc(S(=O)(=O)N2CCCc3cc(NC(=O)c4c(F)cccc4F)ccc32)cc1  6.51%
53. COc1ccc(NC(=O)/C(C#N)=C/c2ccc3c(c2)n(C)c(=O)n3C)cc1  6.53%
54. CC(C)COc1ccc(C(=O)N/C(=C\c2cccc([N+](=O)[O-])c2)C(=O)OC(C)C)cc1  6.7%
55. Cc1cc2c(cc1C)CSC(c1ccccc1OC(=O)C(C)C)SC2  7.27%
56. O=C(c1ccc(Cl)cc1)N1CCCCC(Cl)C1=O (centres unmarked)  7.57%
57. COc1ccc(-c2nc(CS(=O)(=O)CC(=O)NC3CCC(C)CC3)c(C)o2)cc1 (centres unmarked)  7.8%
58. Cc1ccc(-n2nnnc2SCc2ccccn2)cc1C  8.12%
59. CC(=O)NC(=S)Nc1ccc(NC(=O)COc2ccc(Cl)cc2)cc1  8.5%
60. O=S(=O)([O-])c1cc(O)c2c(O)c(N=Nc3cc(Cl)ccc3O)c(S(=O)(=O)[O-])cc2c1.[Na+]  9.45%
61. COc1ccc(-n2nc3cc(C)c(NC(C)=O)cc3n2)cc1  9.45%
62. CSc1nsc(/C=C/Nc2cccc(Cl)c2)c1C#N  9.57%
63. O=C1c2cccnc2C(=O)N1C1CCCCC1  9.65%
64. Cc1cccnc1NC(=O)CCNC(=O)c1ccc(Br)cc1  10.1%
65. O=C(CSc1ccccc1)N1CCN(c2ccc(F)cc2)CC1  10.8%
66. CCOC(=O)c1c(C)[nH]c(C(=O)OCc2ccccc2)c1C  11%
67. O=c1c2ccccc2[nH]c2ccccc12  11.3%
68. CC(C)(C)OC(=O)NC(Cc1ccccc1)C(=O)NC(CSC1CCCCO1)C(=O)NN (centres unmarked)  11.5%
69. CC1CN(c2nc3ccccc3nc2SCC(=O)Nc2cccc(C(F)(F)F)c2)CC(C)O1 (centres unmarked)  12.1%
70. O=C(N/N=C\c1ccco1)c1cncc(Br)c1  12.3%
71. O=C(NCc1nc(-c2ccc(C(F)(F)F)cc2)no1)Nc1ccc(OC(F)(F)F)cc1  12.9%
72. COc1ccc(Nc2cc(=O)n(-c3ccccc3)c3c2c(=O)n(C)c(=O)n3C)cc1  12.9%
73. C[C@H]1CC[C@]2(O[C@H](CCO)C[C@H](O)[C@H]2O)O1  13.1%
74. Cc1ccnc(NS(=O)(=O)c2ccc(NC(=O)Cc3cccs3)cc2)n1  13.8%
75. CC(=O)Nc1ccc(Sc2ccccc2C(=O)Nc2ccc(F)cc2)cn1  14.7%
76. O=c1c2ccccc2nc(-c2ccccc2)n1-c1ccccc1O  16.1%
77. CC1(C)CC(=O)C(N=Nc2ccc(C(F)(F)F)cc2[N+](=O)[O-])=C(O)C1  16.7%
78. CNC(=O)NNC(=O)c1nc(-c2ccccc2)c(C)o1  17.3%
79. N#Cc1c(-c2ccco2)c2c([nH]c1=S)CCCC2  17.5%
80. CC1CCN(C(=O)CCCC(=O)O)CC1  18%
81. O=C(Nc1ccccc1)c1ccc(-c2ccccc2Cl)o1  18%
82. CCOC(=O)c1c(NC(=O)CSc2nc3ccccc3s2)sc(C(C)=O)c1C  18.5%
83. O=c1cc(-c2ccc(Cl)c(Cl)c2)[nH][nH]1  20.4%
84. Cc1nn(-c2cc(C(F)(F)F)ccn2)c(=O)o1  22.8%
85. O=C(NNC(=S)Nc1ccccc1)c1ccncc1  23.1%
86. O=C(CCCN1C(=O)c2cccnc2C1=O)Nc1ccccc1F  28.3%
